Results taken from the supplement of paper PMC11417369.
± gives the standard deviation of the averaged measurements. The list shows a part of the results.

Tested on: PfAP2-EXP AP2 domain (GST-tagged)
Test: gcPBM binding intensity (ln(normalized median fluorescence intensity)); higher = stronger DNA binding
Procedure, shortened: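 The binding buffer was 1× PBS containing 1% milk, 0.2 mg/ml BSA, 0.5% salmon testes DNA and 0.03% Triton X-100. In it, GST-tagged P. falciparum DNA-binding domains expressed in E. coli were applied for 1 h to an Agilent 4 × 180k array of primer-extended double-stranded 36-bp intergenic genomic probes plus negative controls. Binding intensity, read with Alexa488 anti-GST antibody and a 488 nm scan, is the highest Masliner-normalised natural-log median intensity across replicate spots of either probe orientation.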

Sequence	gcPBM binding intensity (ln)
GGAGCACCCAGACACACACACACATATATATATATA [CACACA_site336]	10.2 ± 0.26
TATTATATTTTTATTTGTACGTAAAATTAAGTTATG [XGTACX_site2405]	8.6 ± 0.3
AAAAATATAAACAAACGTACGAAGTGATGATATATT [XGTACX_site2242]	8.89 ± 0.59
GTTAAAAGAAAAATATGTACATAAAAAAATTAGAAA [XGTACX_site578]	8.88 ± 0.28
TATATATATATATGATGTACACATTTTATTATTTGT [XGTACX_site1147]	9.94 ± 0.31
AAGATGGTAAAGAATTGTACGCGCATATATATATTT [XGTACX_site3904]	9.69 ± 0.42
TTTTCAATTAAAAAAAAATTATATTTTATTATTACA [CACACA_negctrl_site142]	7.68 ± 0.23
CTCTTGTTTCCATATAGTACGTAATAATATATACAA [XGTACX_site2428]	8.88 ± 0.2
AATTTGATAATATCATGTACATGAAAGAATTCATGA [XGTACX_site8463]	8.36 ± 0.4
AATAAAAAAATATGAAATTATGACATATAGCATTTG [TGCATGCA_negctrl_site160]	8.26 ± 0.21
TACATAAATTAAAACACACACACACCCAAAAAAAAA [CACACA_site2261]	8.71 ± 0.41
GTGTATATTATTTTATCACACATGTACATATGTTAA [CACACA_site5473]	8.45 ± 0.54
AAAAAATAAAAAGATACACACATATGTATAATATAC [CACACA_site1496]	8.66 ± 0.44
TACAACCTTTAGACAAGTACAAGAATTATATGTGGC [XGTACX_site4581]	8.71 ± 0.4
ATACAATTCTTACATTGTACTTTTTTTTTTTATCAC [XGTACX_site6327]	8.47 ± 0.42
TGTATATCACATGAGAGGTGGAGATGGGGATAAATA [CACACA_negctrl_site1148]	8.82 ± 0.43
TTAATATGAATTATTACATGCAACTAAATATATTTA [TGCATGCA_site490]	8.74 ± 0.33
TAATACAGATTAAAAGGTACACTTATTTGGTATTAT [XGTACX_site4966]	8.46 ± 0.34
ACAAAATATATAGACACACAAACACAAATATGTTTT [CACACA_site3016]	8.21 ± 0.3
TCTATACCTATTCTTACACACATATGTATAAATATA [CACACA_site6407]	8.84 ± 0.45
TTGACAACTCTTTTCATACACACAAAAAAAAAAAAA [CACACA_site2362]	8.4 ± 0.51
ACTAAAAAAATAAACACACAGATTTATATAATATAT [CACACA_site4884]	8.38 ± 0.39

Sequence	gcPBM binding intensity (ln)
TATTAATGATAAGAATATTTTATATGATACATGCAT [CACACA_negctrl_site923]	8.68 ± 0.41
TATCTTTATATATAGTGTACACATTAAACAAATCTC [XGTACX_site7381]	8.78 ± 0.16
TATAAATAAATATGTACACACATATATACCTTTCAT [CACACA_site7291]	8.46 ± 0.34
AATAATTAACAAAAAAAAAAAAAAAAAAAAAAAAAA [GTGCAC_negctrl_site255]	7.96 ± 0.49
TATGTATTATATATTTGTACTCATTCTAATTCCTTC [XGTACX_site7294]	8.66 ± 0.38
TATATTAATGTTCATAGTACGTATGATTAGGAAAAA [XGTACX_site616]	8.65 ± 0.38
ACATATATGTATAATACACACACTAATATATAATTG [CACACA_site1966]	8.52 ± 0.46
ATTTAAAAAAAAACGGAATTTTTTTTTTTTTTAAAG [XGTACX_negctrl_site91]	8.06 ± 0.51
ATATTCATATATTTACGTACATACATTTATATATTT [XGTACX_site7644]	8.85 ± 0.37
GGAAAGACAGTTCACAGTACCCAGGAAATCTGCGGA [XGTACX_site4933]	8.61 ± 0.51
TTTAGTTTTTATATAGCACACATATTGTGATTATGT [CACACA_site8316]	8.55 ± 0.22
AATTTATAAAAGAAGAGGACACATATAAATATAAAT [XGTACX_site59]	8.86 ± 0.38
GAAAATAACTAAAATTGTACAAAGAAACATATATTT [XGTACX_site6484]	8.79 ± 0.56
AGAAAAAAATAATCATCACACACGGAGAATGTCCAA [CACACA_site2314]	8.47 ± 0.57
TATTAAAGCACCCATGCACACACACTAAGGAAAAGA [CACACA_site7961]	9.47 ± 0.18
GATATTCATTATATATGTACATATATGTAATATATA [XGTACX_site2210]	8.55 ± 0.24
TATATATATCTGTATACACACATACAAATATGTAAA [CACACA_site5950]	8.4 ± 0.29
TAATAATATATAAAAAGTACATAACAAGATATGAAA [XGTACX_site4921]	8.69 ± 0.33
ATCATATGTATGGTGGTGCATTATGCATGAATTTTA [GTGCAC_site9798]	9.12 ± 0.071
ATATATTTTTTTTTTTCACACATTAGGATTCATATA [CACACA_site5758]	8.46 ± 0.5
TTTATCTAAATATGTGTGCACTCGTTAATTTTTTTT	8.96 ± 0.057
TATATAAACCCACCTACACACACAACGTAAATGCAT [CACACA_site8702]	9.26 ± 0.69

Sequence	gcPBM binding intensity (ln)
ATTATTATATTCAAATGTACTTAATAAACATTTTAA [XGTACX_site3023]	8.2 ± 0.26
TAAAGAATATTATAAACACACACTTTATAAAGAATT [CACACA_site114]	8.5 ± 0.37
TGTTGATTTATCCTGTGTACGGATATATATCTTTCA [XGTACX_site7826]	8.63 ± 0.38
TATATAAAGAAACACACACACACCTTATAATTATTA [CACACA_site4062]	8.79 ± 0.35
GTAATTATACATATTACACACTCTCTTGATCTTTTT [CACACA_site7756]	8.66 ± 0.33
AAAAAAAAAACACGCGCACACACACCCACCCACCCA [CACACA_site8689]	9.41 ± 0.62
ACTAATAAAGGTGTAATACACACTATAAAAAGGAAT [CACACA_site1124]	8.88 ± 0.57
ATATATAATATATATTGTACAGGTATGTCTATAAAT [XGTACX_site2243]	8.86 ± 0.35
TTTTTTCTTTATTATGGTACGTATAAAAAAATTATA [XGTACX_site3433]	8.35 ± 0.3
GAGAGGTATCAAAAATGTACACATATATATATGTAT [XGTACX_site5611]	8.52 ± 0.38
ATTATTCCATATTATTGTACTTTAATTTTTTAAACC [XGTACX_site2960]	8.79 ± 0.42
TTTTTATCAACAAATAATACCATAACTCATATTTAT [CACACA_negctrl_site740]	8.22 ± 0.35
TATAAAATTTTTAAAAGTACATATTTTACATAATAC [XGTACX_site2193]	8.38 ± 0.26
AGAAAACATATGTTTTGTACTTAAGAAAAAAAAAAA [XGTACX_site4231]	8.59 ± 0.53
TAACATATGGGACACACATGCAACTGTTATATGTCC [TGCATGCA_site959]	8.76 ± 0.35
AACAGGTCATAATTTACACACTATATATTTTATTAT [CACACA_site670]	8.8 ± 0.43
TATATCATATAAAACCGTACATACATACTTAATTGT [XGTACX_site6822]	8.51 ± 0.49
TGATTAATTTTTAAATGTACTTAAAAATATACTTAT [XGTACX_site2872]	8.21 ± 0.33
ATCTATATTCATAATACACACATTCTGTAGCATTAT [CACACA_site7058]	8.64 ± 0.38
AAAAATAAATAAATATGTACATATATACATATATAT [XGTACX_site5892]	8.31 ± 0.32
AAAAAAAAATTAAAATGTACACATAAAAAAAAAAAA [XGTACX_site794]	8.64 ± 0.42
TTTTATATGTTATATACACACATATAAATAAATATA [CACACA_site7418]	8.33 ± 0.35

Sequence	gcPBM binding intensity (ln)
AAATAAAAAAAAGCCTGTACATGTTCATAAATTTTT [XGTACX_site7925]	8.43 ± 0.4
ATATATATTTATAATCGTACGTACCTAACAATACAA [XGTACX_site4510]	8.91 ± 0.33
GAATATTAAATATTATCACACACATAATTATTTCCA [CACACA_site8730]	8.49 ± 0.33
TCCTTATTTCATATTTTTAAATAATACAAAAAAAAA [CACACA_negctrl_site773]	8.06 ± 0.38
CTTAAATTAATTTGGGTGCATATATTTGTACACATT [GTGCAC_site9948]	8.99 ± 0.31
TTCTATTTATATGTGGGTACTAATTTTTTTTCTTTT [XGTACX_site7104]	8.6 ± 0.28
TGAATAAAATATTATACACACATATGTATATAACAT [CACACA_site974]	8.24 ± 0.35
TTAATTTTTTTTTAAACACACATTTTTTTATTTAAG [CACACA_site2738]	8.21 ± 0.57
GTTATAAATAATAAATAAATAATCAAATGAAGAATG [CACACA_negctrl_site653]	8.71 ± 0.39
TATTAATTTTTTTTTTTTTTTTTTTTTTTTTTTTTT [CACACA_negctrl_site1329]	9.15 ± 0.085
AGGAGGATAGTTCACAGTACCCAGGAAATCTGCGGA [XGTACX_site4928]	8.58 ± 0.54
TTTATTTTCCAAAGGGTGCACATAGTTAAAACGATA [GTGCAC_site9855]	9.86 ± 0.88
TATGCAATAAAATATACACACAATATACTTATATAT [CACACA_site7691]	8.44 ± 0.22
AGAATAAATATGTGGTGTTATAGTATTAATGTTAAT [TGCATGCA_negctrl_site62]	8.44 ± 0.33
AATAAATACACATACACACACGACGCTAGTATATGT [CACACA_site6627]	8.29 ± 0.4
ATAAATATACCAATCGGTACACATTTATACAAACAA [XGTACX_site7484]	8.36 ± 0.12
GCTATAAATATAATCACACATAAATATATAATATAT [CACACA_site5144]	8.23 ± 0.29
ATTTACCTATATATTTGTACTTACATAATGCTACCT [XGTACX_site2693]	8.96 ± 0.43
TAAAGAGAGACATCAACACACATACGTATGTATAGA [CACACA_site4896]	8.58 ± 0.49
AATATATTGTTTCCTGATATTAAATTCAATTTAATG [GTGCAC_negctrl_site22]	8.48 ± 0.46
TAAAAAAAAATATATAAACACACATATTTATATACA [CACACA_site8469]	8.13 ± 0.33
ATTCTATATGAAAAATGTACAAATAAAAATTCTAAG [XGTACX_site8900]	8.46 ± 0.33
